# Laboratory results published in the supplement of paper PMC12217912.
# The list shows a part of the results. Sequences were assembled here from the parent chain. Values near 0.05 are background.
# B1: TEV protease; numbered along this chain (parent)
# chain: MGESLFKGPRDYNPISSSICHLTNESDGHTTSLYGIGFGPFIITNKHLFRRNNGTLVVQSLHGVFKVKDTTTLQQHLVDGRDMIIIRMPKDFPPFPQKLKFREPQREERICLVTTNFQTKSMSSMVSDTSCTFPSGDGIFWKHWIQTKDGQCGSPLVSTRDGFIVGIHSASNFTNTNNYFTSVPKNFMELLTNQEAQQWVSGWRLNADSVLWGGHKVFMVKPEEPFQPVKEATQL
# Variants of: B1
# Test: raw area under fraction-flipped curve 0-4 h after induction (AUC4h, not background-subtracted), DNA-recorder readout of cleavage of the substrate (dimensionless); higher = more cleavage of the substrate by the protease variant
# Details: temperature: 34 °C; time window: 0-4 h after rhamnose induction
# Description: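 In vivo DNA recorder in E. coli TOP10(DE3) ΔrhaA at 34 °C. Each TEVp single-site mutant (parent TEVp 0) is paired with a single-site variant of the 7-mer TEVs (canonical ENLYFQ|S). The substrate sits between flexible linkers in a Bxb1-sfGFP-TEVs-SsrA fusion, so cleavage stabilises Bxb1 and speeds flipping of a recombination array, read by NGS. The value is the raw area under the fraction-flipped curve over 0-4 h after rhamnose induction (AUC4h), with ≥20 reads per time point. It is not background-subtracted; inactive controls average about 0.047.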
# 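Also: Bxb1 expression induced with 0.2% (w/v) L-rhamnose at OD600 near 0.5, cultures sampled hourly, flipped fraction per protease–substrate barcode pair counted by paired-end Illumina sequencing.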
Variant,area with substrate ENLYAQS,area with substrate ENLYCQS,area with substrate ENLYDQS,area with substrate ENLYEQS,area with substrate ENLYGQS,area with substrate ENLYHQS,area with substrate ENLYIQS,area with substrate ENLYKQS,area with substrate ENLYLQS,area with substrate ENLYMQS,area with substrate ENLYNQS,area with substrate ENLYPQS,area with substrate ENLYQQS,area with substrate ENLYRQS,area with substrate ENLYSQS,area with substrate ENLYTQS,area with substrate ENLYVQS,area with substrate ENLYYQS,area with substrate ENLYWQS
MGESLFKGPRDYNPISSSICHLTNESDGHTTSLYGIGFGPFIITNKHLFRRNNGTLVVQSLHGVFKVKDTTTLQQHLVDGRDMIIIRMPKDFPPFPQKLKFREPQREERICLVTTNFQTKSMSSMVSDTSCTFPSGDGIFWKHWIQTKDGQCGSPLVSTRDGFIVGIHSASNFTNTNNYFTSVPKNFMELLTNQELQQWVSGWRLNADSVLWGGHKVFMVKPEEPFQPVKEATQL [A196L],0.0734,0.114,0.059,0.066,0.0599,0.0782,0.145,0.0615,0.111,0.0834,0.0774,0.0827,0.063,0.0571,0.0914,0.112,0.145,0.0563,–
MGESLFKGPRDYNPISSSICHLTNESDGHTTSLYGIGFGPFIITNKHLFRRNNGTLVVQSLHGVFKVKDTTTLQQHLVDGRDMIIIRMPKDFPPFPQKLKFREPQREERICLVTTNFQTKSMSSMVSDTSCTFPSGDGIFWKHWIQTKDGQCGSPLVSTRDGFIVGIHSASNFTNTNNYFTSVPKNFMELLTNQEAQQWVSGYRLNADSVLWGGHKVFMVKPEEPFQPVKEATQL [W203Y],0.0699,0.052,0.0605,0.0627,–,0.0622,–,0.0589,–,0.0759,0.0677,0.0855,0.0546,0.0658,0.059,0.0622,0.0633,0.0381,–
MGESLFKGPRDYNPISSSICHLTNESDGHTTSLYGIGFGPFIITNKHLFRRNNGTLVVQSLHGVFKVKDTTTLQQHLVDGRDMIIIRMPKDFPPFPQKLKFREPQREERICLVTTNFQTKSMSSMVSDTSCTFPSGDGIFWKHWIQTKDGQCGSPLVSTRDGFIVGIHSASNFTNTNNYFTSVPKNFMELLTNQEAQQWVSGWRLNADSVLWGGHKVFMVKPEEPFQPVKHATQL [E231H],0.0672,0.0814,–,0.0762,–,–,0.0917,0.0556,–,0.0893,0.0684,0.0735,0.0542,–,–,0.0655,0.137,–,0.0655
MGESLFKGPRDYNPISSSICHLTNESDGHTTSLYGIGFGPFIITNKHLFRRNNGTLVVQSLHGVFKVKDTTTLQQHLVDGRDMIIIRMPKDFPPFPQKLKFREPQREERICLVTTNFQTKSMSSMVSDTSCTFPSGDGIFWKHWIQTKDGQCGSPLVSTRDGFIVGIHSASNFTNTNNYFTSVPKNFMELLTNQEAQQWVSGWRLNADSVLWGGHKVFVVKPEEPFQPVKEATQL [M219V],0.0875,0.107,0.0656,0.0665,0.0565,–,0.0914,0.0665,0.0346,0.107,0.0656,–,0.0524,0.0488,0.0479,0.078,0.0885,–,–
MGESLFKGPRDYNPISSSICHLTNESDGHTTSLYGIGFGPFIITNKHLFRRNNGTLVVQSLHGVFKVKDTTTLQQHLVDGRDMIIIRMPKDFPPFPQKLKFREPQREERICLVTTNFQTKSMSSMVSDTSCTFPSGDGIFWKHWIQTKDGQCGSPLVSTRDGFIVGIHSASNFTNTNNYFTSVPKNFMELLTNQEAQQHVSGWRLNADSVLWGGHKVFMVKPEEPFQPVKEATQL [W199H],0.0472,0.0562,0.062,0.0573,–,0.0633,–,0.0369,–,0.0666,0.0537,0.0656,0.0511,–,0.0655,–,0.049,–,0.0598
MGESLFKGPRDYNPISSSICHLTNESDGHTTSLYGIGFGPFIITNKHLFRRNNGTLVVQSLHGVFKVKDTTTLQQHLVDGRDMIIIRMPKDFPPFPQKLKFREPQREERICLVTTNFQTKSMSSMVSDTSCTFPSGDGIFWKHWIQTKDGQCGSPLVSTRDGFIVGIHSASNFTNTNNYFTSVPKNFMELLTNQEAQQWVSGWRLNADSVLWGGHKVFMVKPEEPWQPVKEATQL [F226W],0.0681,–,0.0707,0.0723,0.0667,–,0.122,0.0804,–,0.087,0.0687,0.0692,0.0677,–,0.0739,0.103,0.118,0.052,0.0944
MGESLFKGPRDYNPISSSICHLTNESDGHTTSLYGIGFGPFIITNKHLFRRNNGTLVVQSLHGVFKVKDTTTLQQHLVDGRDMIIIRMPKDFPPFPQKLKFREPQREERICLVTTNFQTKSMSSMVSDTSCTFPSGDGIFWKHWIQTKDGQCGSPLVSTRDGFIVGIHSASNFTNTNNYFTSVPKNFMELLTNQEAQQWVSGWRLNADSVLWGGHKVFMVKSEEPFQPVKEATQL [P222S],0.0693,–,–,0.0669,0.0617,0.0607,0.0992,0.0707,–,0.0808,0.0764,0.0655,0.0575,0.0557,0.0901,0.0649,0.0948,0.0659,0.0048
MGESLFKGPRDYNPISSSICHLTNESDGHTTSLYGIGFGPFIITNKHLFRRNNGTLVVQSLHGVFKVKDTTTLQQHLVDGRDMIIIRMPKDFPPFPQKLKFREPQREERICLVTTNFQTKSMSSMVSDTSCTFPSGDGIFWKHWIQTKDGQCGSPLVSTRDGFIVGIHSASNFTNTNNYFTSVPKNFMELLTNQEAQQWVSGWRLNADSVLWGGHKVFMIKPEEPFQPVKEATQL [V220I],0.0716,–,0.0341,0.066,0.0632,0.0653,–,0.0548,–,0.0885,–,0.0832,–,–,0.0746,0.0768,0.107,0.0997,–
MGESLFKGPRDYNPISSSICHLTNESDGHTTSLYGIGFGPFIITNKHLFRRNNGTLVVQSLHGVFKVKDTTTLQQHLVDGRDMIIIRMPKDFPPFPQKLKFREPQREERICLVTTNFQTKSMSSMVSDTSCTFPSGDGIFWKHWIQTKDGQCGSPLVSTRDGFIVGIHSASNFTNTNNYFTSVPKNFMELLTNQEAQQWVSGWRLNADSVLWGGHKVFMPKPEEPFQPVKEATQL [V220P],0.0664,0.0731,0.0643,0.0562,0.0648,0.0549,0.0578,0.0715,0.0659,0.0723,0.0589,0.077,0.0661,0.0541,–,0.077,0.097,0.0692,0.0615
